Measurements from PubChem BioAssay AID1508623 (National Center for Advancing Translational Sciences (NCATS), 2021).
In all, about 48,000 compounds went through this assay and about 450 (0.94%) were called active. Not shown: some 19% with an inconclusive outcome. Calls come from the whole dose curve; as a rule, active = well fitted inhibition curve with a large enough effect; inconclusive = small, poorly fitted or top-dose-only effect; inactive = no such curve, though single readings can be large or run the other way. The list shows a part of the results.

Experiment: Primary qHTS for Identification of Small Molecule Inhibitors of Huntingtin Promoter Activity; note: nearly all actives have a fitted effect of over 50% in size
Conditions: HEK293 HTT promoter firefly luciferase reporter (activity 0% = vehicle and -100% = no light), 24 h; series mostly up to 57.5 µM; activity change, negative = inhibition: at the top concentration
Method in brief: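 HEK293 luciferase promoter-reporter cells (2,500/well) plated 24 h, then compounds added at up to 57.5 uM final for 24 h at 37 °C. Firefly luminescence by Dual-Glo, normalized to vehicle (0%) and zero RLU (-100%).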
Potency is the fitted concentration of half-maximal effect.

| Compound | activity change, negative = inhibition | Potency |
| --- | --- | --- |
| Cc1nc2ccccc2c(=O)n1-c1ccc(NC(=O)c2ccc([N+](=O)[O-])cc2)cc1 | inactive: -15.8% | – |
| COc1ccc(N2CCN(C(=O)CCc3c(C)nc4cc(-c5ccc(Cl)cc5)nn4c3C)CC2)cc1 | – | active: 316 nM |
| COc1ccc(-c2[nH]nc3nc(-c4cc(OC)c(OC)c(OC)c4)cc(C(=O)O)c23)cc1 | inactive: 0.506% | – |
| Cc1ccccc1CNC(=O)C(=O)NCC(c1ccco1)S(=O)(=O)c1ccccc1 (stereo unspecified) | inactive: -14.7% | – |
| COc1ccc(C(=O)Nc2nnc(S(=O)(=O)N(C)c3ccc(Cl)cc3)s2)cc1OC | inactive: -15% | – |
| Cc1ccc(CCNC(=O)c2cn(C)c3ccc(S(=O)(=O)N4CCCCC4)cc3c2=O)cc1 | inactive: -4.21% | – |
| CCCS(=O)(=O)N1CCCC(C(=O)NCCCOC)C1 (stereo unspecified) | inactive: -12.1% | – |
| CCc1cccc(NC(=O)CCS(=O)(=O)c2cc(Br)cc3c2N(C(C)=O)CC3)c1 | inactive: -1.43% | – |
| O=C(NCc1ccccc1Cl)c1cc2ccccc2o1 | inactive: 4.54% | – |
| O=C(CSc1nc2ccccc2nc1Cc1ccccc1)N1CCCCC1 | inactive: -24.9% | – |
| COc1cc(-c2nc3ncccn3c2Nc2ccc(C)cc2C)ccc1O | inactive: 6.49% | – |
| CCOc1ccccc1NC(=O)N1CCN(Cc2nc3ccc(C)cc3o2)CC1 | inactive: -17.9% | – |
| CCCCOc1cccc(C(=O)Nc2ccc3oc(-c4cccnc4)nc3c2)c1 | inactive: -4.97% | – |
| Cc1cc(C)cc(-n2c(SCC(N)=O)nc3c(oc4ccccc43)c2=O)c1 | inactive: -20.3% | – |
| COc1cccc(Nc2c3c(nc4nncn24)CCC3)c1 | inactive: -16.8% | – |
| CCOc1ccccc1NC(=O)Cn1cnc2sc(C)c(S(=O)(=O)N3CCC(C)CC3)c2c1=O | inactive: -12.2% | – |
| Cc1ccc(-n2ncc(C(=O)Nc3ccc4c(c3)OCO4)c2C2CCN(C(=O)OC(C)(C)C)CC2)cc1 | inactive: -9.25% | – |
| Cc1ccnc(NS(=O)(=O)c2cc(-c3cc(C)no3)ccc2C)c1 | inactive: -20.8% | – |
| CCc1ccc(N(CC)C(=O)Cn2c(=O)oc3ccccc32)cc1 | inactive: -20.4% | – |
| Cc1nn(S(=O)(=O)c2ccc(F)cc2)c(C)c1S(=O)(=O)N1CCC(C)CC1 | inactive: -8.31% | – |
| COc1cccc2cc(C(=O)NCCc3c(C)[nH]c4ccc(Br)cc34)c(=O)oc12 | inactive: -11% | – |
| CCOC(=O)c1cc2c(=O)n3ccccc3nc2n(CC(C)C)c1=NC(=O)c1cc2ccccc2o1 | inactive: -15.3% | – |
| Cc1ccc(S(=O)(=O)c2cn(Cc3ccc(F)cc3)c3cc(F)c(F)cc3c2=O)cc1 | inactive: -12.5% | – |
| CCOCCn1ccc2c(OCC(=O)Nc3ccc(OC(F)(F)F)cc3)cccc2c1=O | inactive: 0% | – |

| Compound | activity change, negative = inhibition | Potency |
| --- | --- | --- |
| CC(=O)c1cccc(NC(=O)CCS(=O)(=O)c2ccc(Br)s2)c1 | inactive: -5.09% | – |
| CC(C)(C)NC(=O)c1cnn2c(C(F)F)cc(-c3ccccc3)nc12 | inactive: -2.33% | – |
| CCN(C(=O)Cn1c(=O)oc2cc(Cl)ccc21)c1cccc(C(F)(F)F)c1 | inactive: -15.9% | – |
| COc1ccc(/C=C/C(=O)Nc2nc3n(n2)C(c2ccccc2)C=C(c2ccccc2)N3)cc1 (stereo unspecified) | inactive: -31.5% | – |
| Cc1ccc(-c2cnc(NCc3ccc(C(F)(F)F)cc3)n2C)cc1 | inactive: -10.7% | – |
| COCCCNC(=O)c1cc(-c2cccnc2)nc2ccc(S(=O)(=O)N3CCC(C)CC3)cc12 | inactive: -3.48% | – |
| CN1C(=O)C2(c3ccccc31)N(c1cccc(F)c1)C(=O)CS2(=O)=O (stereo unspecified) | inactive: 19.8% | – |
| COc1ccc(Cl)cc1NC(=O)c1c(NCc2sccc2C)sc2c1CCCC2 | inactive: -4.85% | – |
| Clc1ccccc1CNc1nc2ccccc2c2nc(-c3cccnc3)nn12 | inactive: -3.58% | – |
| O=C(Cn1nnc(-c2ccc(Cl)cc2)n1)NCc1ccc(F)cc1 | inactive: -10.9% | – |
| COc1ccc(OC)c(CNS(=O)(=O)c2c(C(=O)N3CCCCCC3)c(C)n(C)c2C)c1 | inactive: 9.1% | – |
| COc1ccccc1N1CCN(C(=O)CCNS(=O)(=O)c2ccc3c(c2)CCN3C(=O)C2CC2)CC1 | inactive: -19.2% | – |
| Cc1ccc(NC(=O)c2cnc(SCC(=O)Nc3cc(C)on3)n(C)c2=O)cc1 | inactive: -12.5% | – |
| COc1ccc(Cl)cc1NC(=O)CSC1=Nc2ccccc2C2=NC(CC(=O)NCc3ccc4c(c3)OCO4)C(=O)N12 (stereo unspecified) | inactive: -23.2% | – |
| Cc1ccc(CNC(=O)Cn2cc(S(=O)(=O)Cc3ccccc3F)c3ccccc32)cc1 | inactive: -17.7% | – |
| C=CCc1ccccc1OCC(O)CN1CCN(c2ccccc2)CC1 (stereo unspecified) | inactive: -2.82% | – |
| COc1ccccc1C(=O)Nc1ccc2c(c1)nc(CN1CCCCC1)n2C | inactive: -2.61% | – |
| CCOC(=O)c1ccc(NC(=O)CC2C(=O)N(c3cccc(OC)c3)C(=O)N2Cc2ccc(OC)cc2)cc1 (stereo unspecified) | inactive: -17.4% | – |
| CC(C)c1cnc2c(c1SCC(=O)NCc1ccccc1)c(=O)n(C)c(=O)n2C | inactive: -8.29% | – |
| CN(Cc1ccccc1)C(=O)CSc1nc2ccccc2n1Cc1ccccc1F | inactive: -16.4% | – |
| Cc1ccccc1NC(=O)CSc1nc(=O)n(CCN2CCOCC2)c2c1CCC2 | inactive: -9.74% | – |
| Cc1sc2c(c1C)c(=O)n(-c1cccc(C(F)(F)F)c1)c(=O)n2Cc1ccc(F)cc1 | inactive: -16.3% | – |
| Cc1ccc(-c2nc3ccc(Cl)cn3c2Nc2ccccc2C)s1 | inactive: 37.2% | – |
| COc1ccccc1Cc1nc2ccccc2nc1SCC(=O)Nc1cccc(Cl)c1C | inactive: -0.887% | – |

| Compound | activity change, negative = inhibition | Potency |
| --- | --- | --- |
| COC(=O)c1ccc(NC(=O)CCc2c(C)nc3c(c2C)c(=O)n(C)c(=O)n3C)cc1 | inactive: -9.5% | – |
| COc1cc(NC(=O)CSC2=Nc3ccccc3N=C(c3ccc(F)cc3)C2)cc(OC)c1 | inactive: -5.33% | – |
| COc1ccc(CNC(=O)c2cnc3cc(C)ccn3c2=O)cc1 | inactive: 1.43% | – |
| CCOCN(C(=O)CSc1nc2ccccc2[nH]1)c1c(C)cccc1CC | inactive: -31.1% | – |
| CCCCN(CC)C(=O)Cn1nc(C)c2c(C)n(-c3ccccc3)nc2c1=O | inactive: -13.8% | – |
| O=C(c1ccccc1)c1ccc2nc(Nc3ccccc3Cl)c3nncn3c2c1 | inactive: -15.2% | – |
| CCOC(=O)c1c(C)oc2nc(C)nc(NCc3cccc(OC)c3)c12 | inactive: -12.3% | – |
| C[C@H](CS)C(=O)N1CCC[C@H]1C(=O)O | inactive: 6.49% | – |
| CCOC(=O)c1cc(OC(=O)c2ccc(OC)c(OC)c2)n(-c2ccccc2)n1 | inactive: 10.5% | – |
| COc1ccccc1CNC(=O)CCCn1c(=O)c2ccccc2n(Cc2ccccc2F)c1=O | inactive: 6.47% | – |
| Cc1ccc(N2CC(C(=O)Nc3ccc(Cl)cc3Cl)CC2=O)cc1 (stereo unspecified) | inactive: -5.14% | – |
| COc1ccccc1NC(=O)CCNS(=O)(=O)c1ccc2c(c1)CCCC(=O)N2 | inactive: -12.7% | – |
| CN(Cc1cc(Br)cc(Br)c1N)C1CCCCC1 | inactive | – |
| CCc1ccc(-c2csc(-c3cc4cc(Br)ccc4oc3=O)n2)cc1 | inactive: -13.2% | – |
| COc1ccc(C(=O)Nc2nnc(S(=O)(=O)N3CCOCC3)s2)cc1 | inactive: -6.66% | – |
| Cc1nn(C(C)C(=O)NCc2cccc(F)c2)c(=O)c2c1sc1ccccc12 (stereo unspecified) | inactive: -3.44% | – |
| CCN(CC)C(=O)Cn1cc(SCC(=O)Nc2ccc(C)cc2)c2ccccc21 | inactive: -10.9% | – |
| COc1ccc(C)cc1NC(=O)C(NS(=O)(=O)c1cccc2nsnc12)c1ccccc1 (stereo unspecified) | inactive: -20.8% | – |
| CCOC(=O)N1CCc2c(sc3c2c(=O)n(-c2ccc(Cl)cc2)c(=O)n3CC(=O)Nc2ccccc2)C1 | inactive: -28.4% | – |
| CCn1c2ccc(F)cc2c2nnc(SCCN3CCCCC3)nc21 | inactive: 0.437% | – |
| Cc1cccc(CNC(=O)C2CCN(c3nc4ccc(Cl)cc4[nH]3)CC2)c1 | inactive: -0.896% | – |
| Cn1cnc2c(F)c(Nc3ccc(Br)cc3Cl)c(C(=O)NOCCO)cc21 | inactive: 2.46% | – |
| Cc1nc2c3ccccc3nc(NNC(=O)CCC(=O)N3CCN(c4ccccc4F)CC3)n2n1 | inactive: -51% | – |
| COc1ccc(C2Nc3ccccc3-c3nnc(SC)nc3O2)cc1C (stereo unspecified) | inactive: -8.45% | – |

| Compound | activity change, negative = inhibition | Potency |
| --- | --- | --- |
| COc1cc(C2c3c(oc4ccc(C)cc4c3=O)C(=O)N2Cc2ccc(F)cc2)ccc1O (stereo unspecified) | inactive: -8.38% | – |
| Cc1ccc(C(=O)Nc2ccccc2F)cc1S(=O)(=O)N1CCOCC1 | inactive: 18.3% | – |
| Cc1ccc(NC(=O)CCC(=O)N2CCOc3ccccc32)c(Cl)c1 | inactive: -17% | – |
| CC1(C)O[C@@H]2C[C@H]3[C@@H]4C[C@H](F)C5=CC(=O)C=C[C@]5(C)[C@H]4[C@@H](O)C[C@]3(C)[C@]2(C(=O)CO)O1 | inactive: -3.29% | – |
| N#Cc1ccccc1NC(=O)C(=O)NCC(c1ccc2c(c1)OCO2)N1CCN(c2ccccc2)CC1 (stereo unspecified) | inactive: 4.03% | – |
| CCCCN(CC)C(=O)Cn1c(=O)n(-c2ccc(OCC)cc2)c(=O)c2c3c(sc21)CCCC3 | inactive: -26.2% | – |
| Cc1c(C(=O)Nc2ccc(Br)cc2F)sc2ncnc(N(C)C3CCCCC3)c12 | inactive: -12.2% | – |
| CCOC(=O)c1c(C)[nH]c(C)c1S(=O)(=O)NCC(=O)N(C)c1ccc(C)c(C)c1 | inactive: -18.8% | – |
| O=C(Nc1c(C(=O)c2ccccc2)oc2ccccc12)c1cc(=O)c2ccccc2o1 | inactive: -7.56% | – |
| COc1ccc(NC(=O)CSc2nc(-c3ccccc3)nc3cc(=O)[nH]n23)cc1 | inactive: -12.6% | – |
| CSc1ncc(C(=O)Nc2ccccc2C(=O)c2ccccc2)c(C)n1 | inactive: 15.5% | – |
| CC(C)NCC(O)COc1cccc2[nH]ccc12 (stereo unspecified) | inactive: 0.667% | – |
| COc1ccc(C(=O)NCc2nnc(SCC(=O)Nc3ccccc3)n2-c2ccc(F)cc2)cc1 | inactive: -19.8% | – |
| CCOc1ccc(CCNC(=O)CN2C(=O)C(CC)Oc3ccccc32)cc1OCC (stereo unspecified) | inactive: -17.1% | – |
| COc1ccc(OC)c(NC(=O)CSc2ccnc(=O)[nH]2)c1 | inactive: 0.0715% | – |
| Cn1c(=O)oc2cc(S(=O)(=O)CCC(=O)N3CCN(c4ccccc4)CC3)ccc21 | inactive: -5.6% [at 11.5 µM] | – |
| COc1ccccc1-c1cc(C(=O)Nc2sc3c(c2C#N)CCCC3)no1 | inactive: 1.83% | – |
| COc1ccccc1N1CCN(S(=O)(=O)c2c(C)sc3ncn(CC(=O)Nc4cccc(Cl)c4)c(=O)c23)CC1 | inactive: -9.3% | – |
| COC(=O)c1c(-c2ccc(Cl)cc2)noc1N1CCN(c2ccc(OC)cc2)CC1 | inactive: 6.58% | – |
| COc1ccc(C2CC(c3c(O)n(C4CCCCC4)c(=O)[nH]c3=O)=Nc3ccccc3S2)cc1 (stereo unspecified) | inactive: -16.9% | – |
| Cc1ccc2c(c1)NC(=O)C(CC(=O)Nc1cc(Cl)ccc1C)O2 (stereo unspecified) | inactive: -6.68% | – |
| CCc1nn2c(=O)cc(COC(=O)CNC(=O)c3ccccc3)nc2s1 | inactive: -14.4% | – |
| COc1cc(OC)c(Nc2cc(C)nc3ncnn23)cc1Cl | inactive: -2.74% | – |
| CCOc1ccc(C(=O)Nc2cccc(NC(=O)c3ccco3)c2)cc1Cl | inactive: 3.38% | – |
